# In the supplement of paper PMC8728848:
# The other results are listed elsewhere or left out.
# Key:
# Experiment in all cases: glycan array binding signal (z-score within array); higher = stronger binding
# Conditions in all cases: glycan notation: IUPAC condensed, linker removed
# [1] = molecular target: GlcNAc(b1-4)GlcNAc(b1-4)GlcNAc(b1-4)GlcNAc(b1-4)GlcNAc(b1-4)GlcNAc
# How it was run: (§1)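 Glycan array data came from 3228 arrays in the Consortium for Functional Glycomics database, and only arrays with an available protein sequence were kept. Glycan names were put into IUPAC-condensed notation, and columns mapping to the same glycan were averaged. The binding signal is a within-array Z-score, averaged across arrays of one protein sequence run at different concentrations or buffers and across linkers. A negative Z-score can be read as non-binding.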
# [2] = molecular target: GlcNAc(b1-4)[GlcNAc(b1-6)]GalNAc
# How it was run: as §1
# [3] = molecular target: GlcNAc(b1-6)Gal(b1-4)GlcNAc
# How it was run: as §1
# GlcNAc(b1-6)GalNAc = molecular target: GlcNAc(b1-6)GalNAc
# How it was run: as §1
# [4] = molecular target: GlcNAc6S(b1-3)Gal(b1-4)GlcNAc
# How it was run: as §1
# Kdn(a2-3)Gal(b1-3)GalNAc = molecular target: Kdn(a2-3)Gal(b1-3)GalNAc
# How it was run: as §1
# Kdn(a2-3)Gal(b1-3)GlcNAc = molecular target: Kdn(a2-3)Gal(b1-3)GlcNAc
# How it was run: as §1
# Kdn(a2-3)Gal(b1-4)Glc = molecular target: Kdn(a2-3)Gal(b1-4)Glc
# How it was run: as §1
# Kdn(a2-3)Gal(b1-4)GlcNAc = molecular target: Kdn(a2-3)Gal(b1-4)GlcNAc
# How it was run: as §1
# [5] = molecular target: Kdn(a2-3)Gal(b1-4)[Fuc(a1-3)]GlcNAc
# How it was run: as §1
# Kdn(a2-6)Gal(b1-4)GlcNAc = molecular target: Kdn(a2-6)Gal(b1-4)GlcNAc
# How it was run: as §1
# [6] = molecular target: Man(a1-2)Man(a1-2)Man(a1-3)Man
# How it was run: as §1
# [7] = molecular target: Man(a1-2)Man(a1-2)Man(a1-6)[Man(a1-3)]Man
# How it was run: as §1
# Man(a1-2)Man(a1-3)Man = molecular target: Man(a1-2)Man(a1-3)Man
# How it was run: as §1
# [8] = molecular target: Man(a1-2)Man(a1-3)[Man(a1-2)Man(a1-6)]Man
# How it was run: as §1
# [9] = molecular target: Man(a1-2)Man(a1-3)[Man(a1-2)Man(a1-6)]Man(a1-6)[Man(a1-2)Man(a1-2)Man(a1-3)]Man
# How it was run: as §1
# [10] = molecular target: Man(a1-2)Man(a1-3)[Man(a1-2)Man(a1-6)]Man(a1-6)[Man(a1-2)Man(a1-2)Man(a1-3)]Man(b1-4)GlcNAc(b1-4)GlcNAc
# How it was run: as §1
# [11] = molecular target: Man(a1-2)Man(a1-3)[Man(a1-6)]Man(a1-6)[Man(a1-2)Man(a1-3)]Man(b1-4)GlcNAc(b1-4)GlcNAc
# How it was run: as §1
# [12] = molecular target: Man(a1-2)Man(a1-6)[Man(a1-3)]Man(a1-6)[Man(a1-2)Man(a1-2)Man(a1-3)]Man
# How it was run: as §1
# [13] = molecular target: Man(a1-2)Man(a1-6)[Man(a1-3)]Man(a1-6)[Man(a1-2)Man(a1-2)Man(a1-3)]Man(b1-4)GlcNAc(b1-4)GlcNAc
# How it was run: as §1
# Man(a1-3)[Man(a1-6)]Man = molecular target: Man(a1-3)[Man(a1-6)]Man
# How it was run: as §1
# [14] = molecular target: Man(a1-3)[Man(a1-6)]Man(a1-6)[Man(a1-2)Man(a1-3)]Man(b1-4)GlcNAc(b1-4)GlcNAc
# How it was run: as §1
# [15] = molecular target: Man(a1-3)[Man(a1-6)]Man(a1-6)[Man(a1-3)]Man
# How it was run: as §1
# [16] = molecular target: Man(a1-3)[Man(a1-6)]Man(a1-6)[Man(a1-3)]Man(b1-4)GlcNAc(b1-4)GlcNAc
# How it was run: as §1
# [17] = molecular target: Man(a1-3)[Man(a1-6)]Man(b1-4)GlcNAc(b1-4)GlcNAc
# How it was run: as §1
# [18] = molecular target: Man(a1-3)[Man(a1-6)]Man(b1-4)GlcNAc(b1-4)[Fuc(a1-6)]GlcNAc
# How it was run: as §1
# Man(a1-6)Man = molecular target: Man(a1-6)Man
# How it was run: as §1
# Man(b1-4)GlcNAc = molecular target: Man(b1-4)GlcNAc
# How it was run: as §1
# MurNAc(b1-4)GlcNAc = molecular target: MurNAc(b1-4)GlcNAc
# How it was run: as §1
# Neu5Ac(a2-3)Gal = molecular target: Neu5Ac(a2-3)Gal
# How it was run: as §1
# [19] = molecular target: Neu5Ac(a2-3)Gal(b1-3)GalNAc
# How it was run: as §1
# [20] = molecular target: Neu5Ac(a2-3)Gal(b1-3)GalNAc(b1-3)Gal(a1-4)Gal(b1-4)Glc
# How it was run: as §1
# [21] = molecular target: Neu5Ac(a2-3)Gal(b1-3)GalNAc(b1-4)Gal(b1-4)Glc
# How it was run: as §1
# [22] = molecular target: Neu5Ac(a2-3)Gal(b1-3)GalNAc(b1-4)[Neu5Ac(a2-3)]Gal(b1-4)Glc
# How it was run: as §1
# [23] = molecular target: Neu5Ac(a2-3)Gal(b1-3)GalNAc(b1-4)[Neu5Ac(a2-8)Neu5Ac(a2-3)]Gal(b1-4)Glc
# How it was run: as §1
# [24] = molecular target: Neu5Ac(a2-3)Gal(b1-3)GalNAc6S
# How it was run: as §1
# [25] = molecular target: Neu5Ac(a2-3)Gal(b1-3)GlcNAc
# How it was run: as §1
# [26] = molecular target: Neu5Ac(a2-3)Gal(b1-3)GlcNAc(b1-2)Man
# How it was run: as §1
# [27] = molecular target: Neu5Ac(a2-3)Gal(b1-3)GlcNAc(b1-2)Man(a1-3)[GlcNAc(b1-4)][Neu5Ac(a2-3)Gal(b1-3)GlcNAc(b1-2)Man(a1-6)]Man(b1-4)GlcNAc(b1-4)GlcNAc
# How it was run: as §1
# [28] = molecular target: Neu5Ac(a2-3)Gal(b1-3)GlcNAc(b1-2)Man(a1-3)[Neu5Ac(a2-3)Gal(b1-3)GlcNAc(b1-2)Man(a1-6)]Man(b1-4)GlcNAc(b1-4)GlcNAc
# How it was run: as §1
# [29] = molecular target: Neu5Ac(a2-3)Gal(b1-3)GlcNAc(b1-2)[Neu5Ac(a2-3)Gal(b1-3)GlcNAc(b1-4)]Man(a1-6)[Neu5Ac(a2-3)Gal(b1-3)GlcNAc(b1-2)Man(a1-3)]Man(b1-4)GlcNAc(b1-4)GlcNAc
# How it was run: as §1
# [30] = molecular target: Neu5Ac(a2-3)Gal(b1-3)GlcNAc(b1-3)Gal(b1-3)GlcNAc
# How it was run: as §1
# [31] = molecular target: Neu5Ac(a2-3)Gal(b1-3)GlcNAc(b1-3)Gal(b1-4)GlcNAc
# How it was run: as §1
# [32] = molecular target: Neu5Ac(a2-3)Gal(b1-3)GlcNAc(b1-3)GalNAc
# How it was run: as §1
# [33] = molecular target: Neu5Ac(a2-3)Gal(b1-3)GlcNAc(b1-6)GalNAc
# How it was run: as §1
binder,measurement,setting,value
LecB LY19 (Pseudomonas aeruginosa) (protein) MATQGVFTLPANTQFGVTAFANSAGTQTVNVQVNNETVATFTGQSTNNGIIGSKVLNSGGGGKVQILVSVNGRSSDLVSAQVILANELNFALVGSEDSTDNDYNDAVVVINWPLG,glycan array binding signal (z-score),[1],-0.551
same,glycan array binding signal (z-score),[2],-0.55
same,glycan array binding signal (z-score),[3],-0.493
same,glycan array binding signal (z-score),GlcNAc(b1-6)GalNAc,-0.547
same,glycan array binding signal (z-score),[4],-0.548
same,glycan array binding signal (z-score),Kdn(a2-3)Gal(b1-3)GalNAc,-0.368
same,glycan array binding signal (z-score),Kdn(a2-3)Gal(b1-3)GlcNAc,-0.551
same,glycan array binding signal (z-score),Kdn(a2-3)Gal(b1-4)Glc,-0.525
same,glycan array binding signal (z-score),Kdn(a2-3)Gal(b1-4)GlcNAc,-0.555
same,glycan array binding signal (z-score),[5],-0.124
same,glycan array binding signal (z-score),Kdn(a2-6)Gal(b1-4)GlcNAc,-0.547
same,glycan array binding signal (z-score),[6],0.768
same,glycan array binding signal (z-score),[7],1.7
same,glycan array binding signal (z-score),Man(a1-2)Man(a1-3)Man,0.658
same,glycan array binding signal (z-score),[8],1.94
same,glycan array binding signal (z-score),[9],2.32
same,glycan array binding signal (z-score),[10],-0.454
same,glycan array binding signal (z-score),[11],1.3
same,glycan array binding signal (z-score),[12],1.45
same,glycan array binding signal (z-score),[13],1.39
same,glycan array binding signal (z-score),Man(a1-3)[Man(a1-6)]Man,2.19
same,glycan array binding signal (z-score),[14],1.29
same,glycan array binding signal (z-score),[15],-0.382
same,glycan array binding signal (z-score),[16],1.17
same,glycan array binding signal (z-score),[17],1.96
same,glycan array binding signal (z-score),[18],2.09
same,glycan array binding signal (z-score),Man(a1-6)Man,-0.329
same,glycan array binding signal (z-score),Man(b1-4)GlcNAc,-0.467
same,glycan array binding signal (z-score),MurNAc(b1-4)GlcNAc,-0.549
same,glycan array binding signal (z-score),Neu5Ac(a2-3)Gal,-0.559
same,glycan array binding signal (z-score),[19],-0.46
same,glycan array binding signal (z-score),[20],-0.536
same,glycan array binding signal (z-score),[21],-0.48
same,glycan array binding signal (z-score),[22],-0.508
same,glycan array binding signal (z-score),[23],-0.539
same,glycan array binding signal (z-score),[24],-0.56
same,glycan array binding signal (z-score),[25],-0.516
same,glycan array binding signal (z-score),[26],-0.543
same,glycan array binding signal (z-score),[27],-0.407
same,glycan array binding signal (z-score),[28],-0.506
same,glycan array binding signal (z-score),[29],-0.314
same,glycan array binding signal (z-score),[30],-0.554
same,glycan array binding signal (z-score),[31],-0.543
same,glycan array binding signal (z-score),[32],-0.552
same,glycan array binding signal (z-score),[33],-0.546
